Test results reported in article PMC12820563, “FoxP3 forms a head-to-head dimer in vivo and stabilizes its multimerization on adjacent microsatellites”.
The list shows a part of the results.

Biological target: T1, MBP-FoxP1dN (Mus musculus, UniProt P58462 326-579)
T1 sequence: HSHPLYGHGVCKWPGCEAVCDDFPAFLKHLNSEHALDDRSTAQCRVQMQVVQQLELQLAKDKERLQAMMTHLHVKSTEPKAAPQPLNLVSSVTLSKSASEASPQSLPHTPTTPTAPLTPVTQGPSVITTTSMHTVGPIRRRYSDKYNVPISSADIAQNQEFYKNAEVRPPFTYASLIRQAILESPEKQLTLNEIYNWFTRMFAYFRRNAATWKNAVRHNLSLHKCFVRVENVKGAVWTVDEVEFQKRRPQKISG
Experiment: PD-seq (MBP pull-down with sequencing); 20 mM Tris-HCl pH 7.5, 100 mM NaCl, 1.5 mM MgCl2, 0.4 uM protein, 0.1 uM dsDNA library, 30 min, room temperature, amylose pull-down; high values mean tight binding
Conditions: protein: recombinant; tags: His6-MBP; chain copies: 2; dsDNA, one strand shown
In short: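 His6-MBP-tagged mouse FoxP3 or FoxP1 fragment lacking the N-terminus, expressed in E. coli, was mixed at 0.4 µM with 0.1 µM Klenow-filled double-stranded degenerate DNA library. Incubation was 30 min at room temperature in Tris pH 7.5 buffer with NaCl and MgCl2. Complexes were caught on amylose resin and washed three times; DNA was released with proteinase K, PCR-barcoded and Illumina-sequenced. Binding is reads-per-million enrichment, pull-down over input, with replicates pooled.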

**Q.** Which binding signal does the source give for “GATGATTGTTCTCCCAGCTGATGAATTCTAGGCATCGAGTAAACAAATTTTCCTAATCTTTCTGTTCAAGCGCCATCTAC” here?
**A.** Its binding signal is 1.05 RPM ratio (pull-down/input).

**Q.** Which binding signal does the source give for “GATGATTGTTCTCCCAGCTGATGAATTTGACCAATCGAGTAAACAAATTTTCCTAATCTTTCTGTTCAAGCGCCATCTAC” here?
**A.** Its binding signal is 0.987 RPM ratio (pull-down/input).

**Q.** How did the binding signal turn out when “GATGATTGTTCTCCCAGCTGATGAATTGCCCCCTTCGAGTAAACAAATTTTCCTAATCTTTCTGTTCAAGCGCCATCTAC” was run?
**A.** Its binding signal is 0.904 RPM ratio (pull-down/input).

**Q.** For “GATGATTGTTCTCCCAGCTGATGAATTAGGAACCTCGAGTAAACAAATTTTCCTAATCTTTCTGTTCAAGCGCCATCTAC”, which binding signal is on record?
**A.** The binding signal was 0.869 RPM ratio (pull-down/input).

**Q.** With “GATGATTGTTCTCCCAGCTGATGAATTCTAAGGCTCGAGTAAACAAATTTTCCTAATCTTTCTGTTCAAGCGCCATCTAC” as the sequence, how does the binding signal read?
**A.** The binding signal was 0.812 RPM ratio (pull-down/input).

**Q.** “GATGATTGTTCTCCCAGCTGATGAATTGATTCGTTCGAGTAAACAAATTTTCCTAATCTTTCTGTTCAAGCGCCATCTAC” was tested. Which binding signal did it give?
**A.** The binding signal was 1.04 RPM ratio (pull-down/input).

**Q.** “GATGATTGTTCTCCCAGCTGATGAATTGGCCGCATCGAGTAAACAAATTTTCCTAATCTTTCTGTTCAAGCGCCATCTAC” was tested. Which binding signal did it give?
**A.** The binding signal was 1.03 RPM ratio (pull-down/input).

**Q.** “GATGATTGTTCTCCCAGCTGATGAATTAAGAGGATCGAGTAAACAAATTTTCCTAATCTTTCTGTTCAAGCGCCATCTAC” was tested. Which binding signal did it give?
**A.** The binding signal was 0.917 RPM ratio (pull-down/input).

**Q.** “GATGATTGTTCTCCCAGCTGATGAATTTTTTAGATCGAGTAAACAAATTTTCCTAATCTTTCTGTTCAAGCGCCATCTAC” was tested. Which binding signal did it give?
**A.** Its binding signal is 0.923 RPM ratio (pull-down/input).

**Q.** With “GATGATTGTTCTCCCAGCTGATGAATTTTAGGCCTCGAGTAAACAAATTTTCCTAATCTTTCTGTTCAAGCGCCATCTAC” as the sequence, how does the binding signal read?
**A.** The binding signal was 0.823 RPM ratio (pull-down/input).

**Q.** With “GATGATTGTTCTCCCAGCTGATGAATTATGGCCATCGAGTAAACAAATTTTCCTAATCTTTCTGTTCAAGCGCCATCTAC” as the sequence, how does the binding signal read?
**A.** The binding signal was 0.984 RPM ratio (pull-down/input).

**Q.** “GATGATTGTTCTCCCAGCTGATGAATTCCGTTCTTCGAGTAAACAAATTTTCCTAATCTTTCTGTTCAAGCGCCATCTAC” was tested. Which binding signal did it give?
**A.** Its binding signal is 0.818 RPM ratio (pull-down/input).

**Q.** “GATGATTGTTCTCCCAGCTGATGAATTCGTCCACTCGAGTAAACAAATTTTCCTAATCTTTCTGTTCAAGCGCCATCTAC” was tested. Which binding signal did it give?
**A.** The binding signal was 0.852 RPM ratio (pull-down/input).

**Q.** How did the binding signal turn out when “GATGATTGTTCTCCCAGCTGATGAATTTATCTGCTCGAGTAAACAAATTTTCCTAATCTTTCTGTTCAAGCGCCATCTAC” was run?
**A.** Its binding signal is 1.06 RPM ratio (pull-down/input).

**Q.** For “GATGATTGTTCTCCCAGCTGATGAATTAGCCTGTTCGAGTAAACAAATTTTCCTAATCTTTCTGTTCAAGCGCCATCTAC”, which binding signal is on record?
**A.** The binding signal was 0.913 RPM ratio (pull-down/input).

**Q.** How did the binding signal turn out when “GATGATTGTTCTCCCAGCTGATGAATTTTAGTGCTCGAGTAAACAAATTTTCCTAATCTTTCTGTTCAAGCGCCATCTAC” was run?
**A.** Its binding signal is 0.983 RPM ratio (pull-down/input).

**Q.** With “GATGATTGTTCTCCCAGCTGATGAATTCATCTTATCGAGTAAACAAATTTTCCTAATCTTTCTGTTCAAGCGCCATCTAC” as the sequence, how does the binding signal read?
**A.** The binding signal was 0.961 RPM ratio (pull-down/input).

**Q.** “GATGATTGTTCTCCCAGCTGATGAATTCCTCTAATCGAGTAAACAAATTTTCCTAATCTTTCTGTTCAAGCGCCATCTAC” was tested. Which binding signal did it give?
**A.** The binding signal was 0.999 RPM ratio (pull-down/input).

**Q.** How did the binding signal turn out when “GATGATTGTTCTCCCAGCTGATGAATTCCCCGGCTCGAGTAAACAAATTTTCCTAATCTTTCTGTTCAAGCGCCATCTAC” was run?
**A.** The binding signal was 0.696 RPM ratio (pull-down/input).

**Q.** “GATGATTGTTCTCCCAGCTGATGAATTGCAATAATCGAGTAAACAAATTTTCCTAATCTTTCTGTTCAAGCGCCATCTAC” was tested. Which binding signal did it give?
**A.** The binding signal was 1.71 RPM ratio (pull-down/input).

**Q.** For “GATGATTGTTCTCCCAGCTGATGAATTCAGAGCATCGAGTAAACAAATTTTCCTAATCTTTCTGTTCAAGCGCCATCTAC”, which binding signal is on record?
**A.** The binding signal was 0.978 RPM ratio (pull-down/input).

**Q.** “GATGATTGTTCTCCCAGCTGATGAATTTCATACATCGAGTAAACAAATTTTCCTAATCTTTCTGTTCAAGCGCCATCTAC” was tested. Which binding signal did it give?
**A.** The binding signal was 1.04 RPM ratio (pull-down/input).

**Q.** Which binding signal does the source give for “GATGATTGTTCTCCCAGCTGATGAATTCATGTTCTCGAGTAAACAAATTTTCCTAATCTTTCTGTTCAAGCGCCATCTAC” here?
**A.** The binding signal was 0.892 RPM ratio (pull-down/input).

**Q.** How did the binding signal turn out when “GATGATTGTTCTCCCAGCTGATGAATTCGGAAACTCGAGTAAACAAATTTTCCTAATCTTTCTGTTCAAGCGCCATCTAC” was run?
**A.** Its binding signal is 0.786 RPM ratio (pull-down/input).

**Q.** Which binding signal does the source give for “GATGATTGTTCTCCCAGCTGATGAATTAGCCCGCTCGAGTAAACAAATTTTCCTAATCTTTCTGTTCAAGCGCCATCTAC” here?
**A.** Its binding signal is 0.752 RPM ratio (pull-down/input).

**Q.** For “GATGATTGTTCTCCCAGCTGATGAATTGATTCAATCGAGTAAACAAATTTTCCTAATCTTTCTGTTCAAGCGCCATCTAC”, which binding signal is on record?
**A.** Its binding signal is 1.12 RPM ratio (pull-down/input).

**Q.** Which binding signal does the source give for “GATGATTGTTCTCCCAGCTGATGAATTAAGGATTTCGAGTAAACAAATTTTCCTAATCTTTCTGTTCAAGCGCCATCTAC” here?
**A.** The binding signal was 0.83 RPM ratio (pull-down/input).

**Q.** With “GATGATTGTTCTCCCAGCTGATGAATTTCTCCATTCGAGTAAACAAATTTTCCTAATCTTTCTGTTCAAGCGCCATCTAC” as the sequence, how does the binding signal read?
**A.** Its binding signal is 0.976 RPM ratio (pull-down/input).

**Q.** “GATGATTGTTCTCCCAGCTGATGAATTCCCTTGGTCGAGTAAACAAATTTTCCTAATCTTTCTGTTCAAGCGCCATCTAC” was tested. Which binding signal did it give?
**A.** The binding signal was 0.752 RPM ratio (pull-down/input).

**Q.** Which binding signal does the source give for “GATGATTGTTCTCCCAGCTGATGAATTAGTTATATCGAGTAAACAAATTTTCCTAATCTTTCTGTTCAAGCGCCATCTAC” here?
**A.** The binding signal was 1.07 RPM ratio (pull-down/input).

**Q.** Which binding signal does the source give for “GATGATTGTTCTCCCAGCTGATGAATTCGGGATCTCGAGTAAACAAATTTTCCTAATCTTTCTGTTCAAGCGCCATCTAC” here?
**A.** Its binding signal is 0.775 RPM ratio (pull-down/input).

**Q.** For “GATGATTGTTCTCCCAGCTGATGAATTCTATTAATCGAGTAAACAAATTTTCCTAATCTTTCTGTTCAAGCGCCATCTAC”, which binding signal is on record?
**A.** Its binding signal is 1.07 RPM ratio (pull-down/input).
